In the supplement of paper PMC10126150:
Sequences with one replicate were seen in a single cluster, so their values are uncertain.

Tested on: ATP
Experiment: switch fluorescence ratio, 500 uM ATP over buffer (Cy3 cluster intensity, sum of 5 cycles each) (fold (ratio)); higher = stronger signal-on switching upon ATP binding; sequences stand for … in TCGTCGGCAGCGTCAGATGTGTATAAGAGACAGTTTTTTTTTTTTTTTTTTTTTTTTT…TC
Conditions: aptamer strand: ATP DNA aptamer (quencher-CACCTGGGGGAGTATTGCGGAGGAAGG + anchor), 100 nM annealed; ATP concentration: 500 uM; one replicate
In short: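 Cy3-labelled switching-strand clusters on a modified Illumina MiSeq flow-cell were annealed to 100 nM quencher-labelled ATP aptamer, imaged in selection buffer, then imaged after 15 min with 500 uM ATP at 22 °C. Five buffer/ATP cycles ran, with NaOH stripping and re-annealing between them. The fluorescence ratio is summed target-cycle over summed buffer-cycle Cy3 intensity per cluster, averaged per switch-domain sequence. Clusters outside 100-1000 RFU were excluded.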
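Further: ATP exposure 15 min at 22 °C before imaging.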

Sequence	switch fluorescence ratio
TTACGTTGTG	1.02
GAAGTTAAAG	0.971
AGAACTTTGT	0.958
CTGGTTGGTT	1.02
ATCGGTTGTC	1.01
CAATGCGCCC	1.78
AAGCTCCAGA	1.01
AATTACGCCG	1.06
GCGGTCAGCG	0.965
TCGCGTGCGT	1.08
GCTTTTCTTA	0.998
TGTGCGGGCC	0.998
CGATCACGC	1.06
TAGGGCGATA	1.08
AGATTCCCTG	0.983
GGCGTTGACC	0.998
CTCGGGATTC	1.37
GATGATACCA	1.02
CCATGGGCGG	1.09
TGTTCCTTCT	1.03
CGGTTTCGG	0.995
AGGGATAGG	1.84
GGGACAATTA	1.02
GGCCGTTAGT	0.99
GATTACTGGG	1.01
AATCGGTCCT	1.06

Sequence	switch fluorescence ratio
AAAGGGAAAG	1.02
ACACCGGAC	1.73
CCTAGTAGG	1.04
TTATTGTA	0.99
TATAATCGT	0.995
ACCAGGACAG	1.01
ACATCTCCAG	1.04
TGCAGCTCCG	1.04
CAGGTTCTTA	1.03
GCAATAAAAA	1.04
AGTTGTAGAC	1.06
GAAGTTTCTG	1.02
AAAAGAATTG	1.04
ACGCTTGAAG	1.02
AGTATGGATG	0.985
GCAATGCGTT	1.94
TCTCGGCGAA	1.18
GCAGTGGGAT	0.978
TTATGCATT	1
AGAGATATAG	0.995
GAGGTCGCTG	1.02
TCAATGAGAT	0.992
CCGACTGATT	4.45
TCCGATGACA	1.14
TTAGAAGA	1.03
TGGTCTAACA	1

Sequence	switch fluorescence ratio
CACCAACCCC	1.19
CGGTCGCCCA	1.02
GTAATGGGAT	0.979
GTGGTATTAG	0.957
CGGGTAAAGT	1.04
ATGTCTTATC	1.02
AACGGCAACG	1.02
GACAGATGTT	1.02
GCGCAGAACA	0.959
GCGGGTTAGC	1.07
TCATAAGAGG	0.984
AAAAGGACAT	1.03
CCATCTGTAC	1.68
CACCTTACAG	1.32
ACGTTTTTTC	1.04
TTATTCTTTG	0.987
GGCAACTCGG	0.95
GGACCACGGT	1.01
CTTCTGGTA	0.953
AAAATGTTAC	1.09
CCGTCGGGGA	1.07
CGGACCCGCA	2.05
TCTTTGGAAA	1
CTTGCAAACT	1.21
GGTCAAGGGA	1.01
AAGACTTATA	1.03

Sequence	switch fluorescence ratio
ATTATGGAA	0.995
GCGGGTGCGG	0.987
TTGATACCCC	1.45
GTGGGACGGT	0.974
AAAAGATCAG	1.04
ACACAGTTAT	1.02
TGCAGAGGAT	1.03
GCCGGGCTTT	0.985
GATTTACCAT	1.03
TCATAGTTC	0.999
CCGATACTAA	1.24
GAAGTATGGC	1.13
GTTGCATCCC	1.04
CCAGAATCGG	0.964
CGATTGGTAA	1.03
CGTGTCCTTT	0.954
GTCCCGCAGT	4.29
GGGCACCGAT	1
GCCAAATAGC	1.01
GCTAGCACGC	1.06
ATGCGACCCG	1.06
GTCTTCATAT	0.978
GAGGCAGACG	1.06
ATAGTAGAAC	1.02
TATTCTGAAC	1.02
TCTCTCGTG	1.02

Sequence	switch fluorescence ratio
AAGTCGTTAA	1.02
CTCCTAGAGC	1.08
GACAGGGTCA	0.937
GCCCTATAGA	0.996
GAATTTGTGC	1.13
TTTGTGGCT	1
GGAGGAATTC	1.31
GTAGGAACGG	0.979
TTTAATGAAT	0.983
GCAGGCAAAG	0.993
CCTTCATTAA	1.05
TATTCCATT	0.974
TTCTCGTCCT	1.01
AGGTCGTACA	0.994
CTGAGATGAG	1.01
AGGTCACGGA	0.935
GAATCACATG	0.993
AGGAGTCTGA	0.954
TAGTTATGGC	0.989
GTCGTCTGTG	0.947
GTTCGACAGG	1.02
AGATTATTGG	0.978
TTATTTGCC	1.04
CGTCAACCGT	0.976
ACATCGGGCA	0.991
CCTCGGAATG	2.96

Sequence	switch fluorescence ratio
ATGGCGCTCT	1.01
CAACTTACGC	1.26
CACGTCTTCC	1.03
CGCGGCACGT	1.04
ATAAGTCAGG	0.965
ATTCTGGCTT	0.972
CAGGGACATA	1.02
GACGAAGTAA	2.03
GTAGTCGGTT	0.985
GGCTCTCCAC	1.06
AACGAATCGA	0.98
AATCTGTAC	1.02
GCGCGATAAT	1.69
TCGAGCTGGG	0.992
GTACGGGCTG	0.967
ACCGGGGGAT	1.18
CGGGTCCTCC	1.01
TGGTTATGGA	0.972
CGTTGAGCAT	1.13
GGTGTAGCAT	0.996
GGGAGAGGAG	0.992
ATGGGTGATG	0.993
TCCAATCACG	1.04
TATAGCTATG	0.998
GTTACTATGC	1.05
TTCTAGTCGC	0.943

Sequence	switch fluorescence ratio
TCTCGATCGG	1.03
GACGGTGTCG	1.19
CTCGAAGCAC	3.03
AAGAGAAAA	0.967
AAACATTACT	1.24
GGTCGACACA	1.03
ACATACGTTT	1.4
TCGGCTATTA	1.06
ATTGCGCGTA	1.06
ATACAATAAA	0.96
TTCCGAGGGT	0.994
TTATATGCCA	0.978
CCGATGAGT	0.951
ACATAATCGC	1.02
GTAGAGCGAA	1.03
GATACTTACT	1.27
CGATTTAGC	1.01
CAAGCGGGTG	1.14
AGAATAATGA	1.02
ACAATTGTTT	0.941
ATTAGCAGTA	1.02
ATAGCGGGTG	1
GATATGCGGA	0.991
GGTGAACAAG	0.966
CAGTGTAAGT	0.988
CCCTTGCTGC	1.33

Sequence	switch fluorescence ratio
TTGTGATTAT	0.99
GTAATTGGAA	0.988
CTATCATCG	0.984
AGTCCCAGGG	1.24
ATTGGGCTGA	1.01
TCACGTCAG	0.998
AAATACTAG	1.04
TGATTAAGTT	0.966
CACGACCGAC	2.09
ATGCCAGCCG	1.01
AGCAATCTT	1.78
TATGCACTTT	1.05
TCGAACAAAA	1.03
ACATGTACAT	1.05
AAAGGTAAAG	1.01
AATCCATTCG	1.03
TCATTATATG	1.01
CCAGACTTCG	1.15
AGCATATGCG	1.08
